According to the supplement of paper PMC4967469:
The IC50 comes from the fitted curve, where viability falls to half of the control; where the fit passes the top or lowest dose, that dose stands as a limit. AUC sums up the same curve from the lowest dose to the 256-fold higher top dose: 1 means no effect, lower means more sensitive. For part of these data: An inferred top dose comes from the curve model; the source does not state it.

What was measured:
Assay in all cases: Viability of human cancer cell lines after 72 h of drug (GDSC screen)
[1] = compound: CC(=O)O[C@H]1C(=O)[C@@]2(C)[C@H]([C@H](OC(=O)c3ccccc3)[C@]3(O)C[C@H](OC(=O)[C@H](O)[C@@H](NC(=O)c4ccccc4)c4ccccc4)C(C)=C1C3(C)C)[C@]1(OC(C)=O)CO[C@@H]1C[C@@H]2O [Paclitaxel]; conditions: top dose 0.1024 µM
Protocol: (§1)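 Human cancer cell lines in 384-well plates, medium with 10% serum, drug for 72 h over a 256-fold dose range (nine 2-fold or five 4-fold steps up to the top dose). Adherent lines were fixed and stained with the nucleic acid dye Syto60, suspension lines read with resazurin; signal relative to control wells, capped at 0 and 100%. One two-parameter sigmoid per drug and line, fitted in a mixed model over all curves with the slope shared within a line.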

[2] = compound: CC(C)C[C@H](NC(=O)[C@H](Cc1ccccc1)NC(=O)c1cnccn1)B(O)O [Bortezomib]; conditions: top dose 0.02 µM
Protocol: as §1

[3] = compound: COC1=CC(c2cc3ccccc3[nH]2)=N/C1=C\c1[nH]c(C)cc1C [Obatoclax mesylate]; conditions: top dose 16 µM
Protocol: as §1

[4] = compound: COCC(=O)NC/C=C/c1ccc2ncnc(Nc3ccc(Oc4ccc(C)nc4)c(C)c3)c2c1 [CP724714]; conditions: top dose 10.24 µM; top dose inferred
Protocol: as §1

[5] = compound: Cc1cccc(Nc2nc(-c3ccncc3)cs2)c1 [STF-62247]; conditions: top dose 10.24 µM; top dose inferred
Protocol: as §1

[6] = compound: Cc1cnc(CNC(=O)c2c(=O)c3ccc(N4CCCN(C)CC4)nc3n3c2sc2ccccc23)cn1 [CX-5461]; conditions: top dose 10.24 µM; top dose inferred
Protocol: as §1

MC116 (B-cell lymphoma, suspension)
AUC [1]: 0.426 | IC50 [1]: 4.24 nM | AUC [2]: 0.678 | IC50 [2]: 3.35 nM | AUC [3]: 0.133 | IC50 [3]: 128 nM | AUC [4]: 0.999 | IC50 [4]: > 10200 nM | AUC [5]: 0.999 | IC50 [5]: > 10200 nM | AUC [6]: 0.998 | IC50 [6]: > 10200 nM

MC-CAR (haematopoietic neoplasm, suspension)
AUC [1]: 0.728 | IC50 [1]: 26.1 nM | AUC [2]: 0.904 | IC50 [2]: > 20 nM | AUC [3]: 0.166 | IC50 [3]: 112 nM | AUC [4]: 0.986 | IC50 [4]: > 10200 nM | AUC [5]: 0.934 | IC50 [5]: > 10200 nM | AUC [6]: 0.61 | IC50 [6]: 1240 nM

MDST8 (large intestine, adherent)
AUC [1]: 0.845 | IC50 [1]: 72.8 nM | AUC [2]: 0.65 | IC50 [2]: 3.23 nM | AUC [3]: 0.817 | IC50 [3]: 8840 nM | AUC [4]: 0.985 | IC50 [4]: > 10200 nM | AUC [5]: 0.985 | IC50 [5]: > 10200 nM | AUC [6]: 0.961 | IC50 [6]: > 10200 nM

ME-1 (acute myeloid leukaemia, suspension)
AUC [1]: 0.964 | IC50 [1]: > 102 nM | AUC [2]: 0.532 | IC50 [2]: 1.54 nM | AUC [3]: 0.605 | IC50 [3]: 1980 nM | AUC [4]: 0.989 | IC50 [4]: > 10200 nM | AUC [5]: 0.987 | IC50 [5]: > 10200 nM | AUC [6]: 0.926 | IC50 [6]: > 10200 nM

MEG-01 (chronic myeloid leukaemia, suspension)
AUC [1]: 0.753 | IC50 [1]: 32.3 nM | AUC [2]: 0.657 | IC50 [2]: 3.3 nM | AUC [3]: 0.358 | IC50 [3]: 415 nM | AUC [4]: 0.988 | IC50 [4]: > 10200 nM | AUC [5]: 0.94 | IC50 [5]: > 10200 nM | AUC [6]: 0.829 | IC50 [6]: 5870 nM

MFH-ino (soft tissue, adherent)
AUC [1]: 0.376 | IC50 [1]: 2.73 nM | AUC [2]: 0.347 | IC50 [2]: 0.434 nM | AUC [3]: 0.309 | IC50 [3]: 264 nM | AUC [4]: 0.98 | IC50 [4]: > 10200 nM | AUC [5]: 0.982 | IC50 [5]: > 10200 nM | AUC [6]: 0.935 | IC50 [6]: > 10200 nM

MFM-223 (breast, adherent)
AUC [1]: 0.986 | IC50 [1]: > 102 nM | AUC [2]: 0.791 | IC50 [2]: 8.9 nM | AUC [3]: 0.62 | IC50 [3]: 2130 nM | AUC [4]: 0.982 | IC50 [4]: > 10200 nM | AUC [5]: 0.982 | IC50 [5]: > 10200 nM | AUC [6]: 0.987 | IC50 [6]: > 10200 nM

MHH-NB-11 (neuroblastoma, adherent)
AUC [1]: 0.881 | IC50 [1]: > 102 nM | AUC [2]: 0.631 | IC50 [2]: 2.99 nM | AUC [3]: 0.751 | IC50 [3]: 5710 nM | AUC [4]: 0.972 | IC50 [4]: > 10200 nM | AUC [5]: 0.98 | IC50 [5]: > 10200 nM | AUC [6]: 0.231 | IC50 [6]: 96.7 nM

MHH-PREB-1 (B-cell leukaemia, suspension)
AUC [1]: 0.602 | IC50 [1]: 11.8 nM | AUC [2]: 0.744 | IC50 [2]: 5.68 nM | AUC [3]: 0.146 | IC50 [3]: 93.9 nM | AUC [4]: 0.989 | IC50 [4]: > 10200 nM | AUC [5]: 0.866 | IC50 [5]: 7620 nM | AUC [6]: 0.765 | IC50 [6]: 3380 nM

MLMA (hairy cell leukaemia, semi-adherent)
AUC [1]: 0.83 | IC50 [1]: 65.3 nM | AUC [2]: 0.81 | IC50 [2]: 10.6 nM | AUC [3]: 0.227 | IC50 [3]: 159 nM | AUC [4]: 0.984 | IC50 [4]: > 10200 nM | AUC [5]: 0.943 | IC50 [5]: > 10200 nM | AUC [6]: 0.873 | IC50 [6]: 10000 nM

MMAC-SF (melanoma, adherent)
AUC [1]: 0.754 | IC50 [1]: 35.8 nM | AUC [2]: 0.225 | IC50 [2]: 0.189 nM | AUC [3]: 0.166 | IC50 [3]: 90.5 nM | AUC [4]: 0.987 | IC50 [4]: > 10200 nM | AUC [5]: 0.987 | IC50 [5]: > 10200 nM | AUC [6]: 0.987 | IC50 [6]: > 10200 nM

MN-60 (B-cell leukaemia, suspension)
AUC [1]: 0.98 | IC50 [1]: > 102 nM | AUC [2]: 0.802 | IC50 [2]: 10.3 nM | AUC [3]: 0.258 | IC50 [3]: 196 nM | AUC [4]: 0.985 | IC50 [4]: > 10200 nM | AUC [5]: 0.978 | IC50 [5]: > 10200 nM | AUC [6]: 0.705 | IC50 [6]: 2480 nM

MONO-MAC-6 (acute myeloid leukaemia, suspension)
AUC [1]: 0.717 | IC50 [1]: 27.4 nM | AUC [2]: 0.586 | IC50 [2]: 2.18 nM | AUC [3]: 0.392 | IC50 [3]: 494 nM | AUC [4]: 0.959 | IC50 [4]: > 10200 nM | AUC [5]: 0.911 | IC50 [5]: > 10200 nM | AUC [6]: 0.978 | IC50 [6]: > 10200 nM

MPP-89 (mesothelioma, adherent)
AUC [1]: 0.943 | IC50 [1]: > 102 nM | AUC [2]: 0.521 | IC50 [2]: 1.45 nM | AUC [3]: 0.383 | IC50 [3]: 430 nM | AUC [4]: 0.981 | IC50 [4]: > 10200 nM | AUC [5]: 0.977 | IC50 [5]: > 10200 nM | AUC [6]: 0.982 | IC50 [6]: > 10200 nM

MRK-nu-1 (breast, suspension)
AUC [1]: 0.396 | IC50 [1]: 3.4 nM | AUC [2]: 0.734 | IC50 [2]: 5.42 nM | AUC [3]: 0.147 | IC50 [3]: 91 nM | AUC [4]: 0.99 | IC50 [4]: > 10200 nM | AUC [5]: 0.872 | IC50 [5]: 8380 nM | AUC [6]: 0.701 | IC50 [6]: 2220 nM

MS-1 (small cell lung carcinoma, suspension)
AUC [1]: 0.845 | IC50 [1]: 62.6 nM | AUC [2]: 0.979 | IC50 [2]: > 20 nM | AUC [3]: 0.394 | IC50 [3]: 530 nM | AUC [4]: 0.958 | IC50 [4]: > 10200 nM | AUC [5]: 0.991 | IC50 [5]: > 10200 nM | AUC [6]: 0.672 | IC50 [6]: 1820 nM

MSTO-211H (mesothelioma, adherent)
AUC [1]: 0.981 | IC50 [1]: > 102 nM | AUC [2]: 0.86 | IC50 [2]: 14.3 nM | AUC [3]: 0.656 | IC50 [3]: 2580 nM | AUC [4]: 0.976 | IC50 [4]: > 10200 nM | AUC [5]: 0.988 | IC50 [5]: > 10200 nM | AUC [6]: 0.991 | IC50 [6]: > 10200 nM

MY-M12 (leukaemia, suspension)
AUC [1]: 0.534 | IC50 [1]: 8.04 nM | AUC [2]: 0.438 | IC50 [2]: 0.827 nM | AUC [3]: 0.318 | IC50 [3]: 288 nM | AUC [4]: 0.789 | IC50 [4]: 5180 nM | AUC [5]: 0.929 | IC50 [5]: > 10200 nM | AUC [6]: 0.316 | IC50 [6]: 182 nM

MZ1-PC (pancreas, adherent)
AUC [1]: 0.312 | IC50 [1]: 1.66 nM | AUC [2]: 0.637 | IC50 [2]: 3.29 nM | AUC [3]: 0.242 | IC50 [3]: 146 nM | AUC [4]: 0.942 | IC50 [4]: > 10200 nM | AUC [5]: 0.977 | IC50 [5]: > 10200 nM | AUC [6]: 0.676 | IC50 [6]: 2260 nM
